Source: article PMC7588443 (Nature Communications, 2020)
These are yes or no findings as the source states them, for the method shown. Binding seen in cells or lysates may run through a third protein. Some entries that bind do so weakly or less than the wild type. Tags and fused reporters may be left off the sequences shown.

T1: Flag-tagged BSRF1_(20-218) (Epstein-Barr virus (human herpesvirus 4 strain M81)) (UniProt P0CK49)
T1 sequence: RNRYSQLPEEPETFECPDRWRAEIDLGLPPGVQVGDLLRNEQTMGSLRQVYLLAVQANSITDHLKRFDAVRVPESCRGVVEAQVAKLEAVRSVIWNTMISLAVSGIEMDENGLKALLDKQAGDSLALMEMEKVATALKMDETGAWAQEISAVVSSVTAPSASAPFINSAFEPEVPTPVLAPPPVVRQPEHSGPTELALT

T2: Flag-tagged BSRF1 (Epstein-Barr virus (human herpesvirus 4 strain M81)) (UniProt P0CK49)
T2 sequence: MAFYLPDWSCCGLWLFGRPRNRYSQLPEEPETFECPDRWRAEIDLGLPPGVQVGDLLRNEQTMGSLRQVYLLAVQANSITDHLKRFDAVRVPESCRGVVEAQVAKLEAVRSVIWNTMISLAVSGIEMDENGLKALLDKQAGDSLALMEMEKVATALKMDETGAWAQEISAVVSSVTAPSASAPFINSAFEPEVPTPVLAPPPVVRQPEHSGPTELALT

T3: GOLGA5 (UniProt Q8TBA6)
T3 sequence: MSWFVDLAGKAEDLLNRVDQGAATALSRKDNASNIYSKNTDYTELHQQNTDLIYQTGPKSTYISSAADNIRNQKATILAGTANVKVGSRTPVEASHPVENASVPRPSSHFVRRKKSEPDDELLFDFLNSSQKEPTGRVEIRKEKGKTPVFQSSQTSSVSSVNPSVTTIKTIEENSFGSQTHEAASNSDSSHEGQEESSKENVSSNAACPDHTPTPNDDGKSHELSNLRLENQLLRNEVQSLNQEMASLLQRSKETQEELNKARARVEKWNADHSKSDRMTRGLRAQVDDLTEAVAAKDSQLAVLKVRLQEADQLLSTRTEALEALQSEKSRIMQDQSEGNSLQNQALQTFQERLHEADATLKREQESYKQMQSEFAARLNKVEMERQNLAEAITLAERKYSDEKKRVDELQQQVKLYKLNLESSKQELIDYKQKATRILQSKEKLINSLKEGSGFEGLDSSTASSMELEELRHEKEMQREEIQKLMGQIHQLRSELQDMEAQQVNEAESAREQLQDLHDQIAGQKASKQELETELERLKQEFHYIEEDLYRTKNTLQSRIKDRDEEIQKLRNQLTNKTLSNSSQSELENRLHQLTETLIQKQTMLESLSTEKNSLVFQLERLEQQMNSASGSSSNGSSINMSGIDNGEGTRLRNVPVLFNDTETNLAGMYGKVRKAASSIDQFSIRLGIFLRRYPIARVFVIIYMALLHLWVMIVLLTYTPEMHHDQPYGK

T4: GM130 (GOLGA2) (UniProt Q08379)
T4 sequence: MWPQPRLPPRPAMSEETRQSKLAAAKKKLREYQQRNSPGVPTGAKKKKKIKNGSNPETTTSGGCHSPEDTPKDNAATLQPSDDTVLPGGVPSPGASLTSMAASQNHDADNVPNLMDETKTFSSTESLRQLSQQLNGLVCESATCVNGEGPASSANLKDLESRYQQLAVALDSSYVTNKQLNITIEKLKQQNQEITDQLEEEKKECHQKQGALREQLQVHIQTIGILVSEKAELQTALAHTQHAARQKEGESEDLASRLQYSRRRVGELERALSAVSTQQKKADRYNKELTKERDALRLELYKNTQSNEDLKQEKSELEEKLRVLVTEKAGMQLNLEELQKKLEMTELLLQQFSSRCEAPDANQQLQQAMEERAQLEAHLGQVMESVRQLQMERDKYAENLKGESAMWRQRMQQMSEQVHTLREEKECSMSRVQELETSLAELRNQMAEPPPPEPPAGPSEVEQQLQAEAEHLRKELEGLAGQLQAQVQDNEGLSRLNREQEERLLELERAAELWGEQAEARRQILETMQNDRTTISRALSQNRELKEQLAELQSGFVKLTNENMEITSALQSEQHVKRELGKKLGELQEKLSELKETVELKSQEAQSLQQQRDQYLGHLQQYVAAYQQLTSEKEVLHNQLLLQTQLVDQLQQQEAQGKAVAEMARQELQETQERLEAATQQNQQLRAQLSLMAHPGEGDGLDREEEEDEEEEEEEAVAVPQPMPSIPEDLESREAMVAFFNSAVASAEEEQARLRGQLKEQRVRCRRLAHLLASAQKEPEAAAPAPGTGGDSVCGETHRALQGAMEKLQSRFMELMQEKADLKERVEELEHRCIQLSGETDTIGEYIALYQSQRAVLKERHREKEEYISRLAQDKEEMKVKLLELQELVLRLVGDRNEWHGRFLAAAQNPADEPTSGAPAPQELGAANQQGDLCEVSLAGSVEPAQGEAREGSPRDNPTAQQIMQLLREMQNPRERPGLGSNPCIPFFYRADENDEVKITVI

T5: GOLGA1 (UniProt Q92805)
T5 sequence: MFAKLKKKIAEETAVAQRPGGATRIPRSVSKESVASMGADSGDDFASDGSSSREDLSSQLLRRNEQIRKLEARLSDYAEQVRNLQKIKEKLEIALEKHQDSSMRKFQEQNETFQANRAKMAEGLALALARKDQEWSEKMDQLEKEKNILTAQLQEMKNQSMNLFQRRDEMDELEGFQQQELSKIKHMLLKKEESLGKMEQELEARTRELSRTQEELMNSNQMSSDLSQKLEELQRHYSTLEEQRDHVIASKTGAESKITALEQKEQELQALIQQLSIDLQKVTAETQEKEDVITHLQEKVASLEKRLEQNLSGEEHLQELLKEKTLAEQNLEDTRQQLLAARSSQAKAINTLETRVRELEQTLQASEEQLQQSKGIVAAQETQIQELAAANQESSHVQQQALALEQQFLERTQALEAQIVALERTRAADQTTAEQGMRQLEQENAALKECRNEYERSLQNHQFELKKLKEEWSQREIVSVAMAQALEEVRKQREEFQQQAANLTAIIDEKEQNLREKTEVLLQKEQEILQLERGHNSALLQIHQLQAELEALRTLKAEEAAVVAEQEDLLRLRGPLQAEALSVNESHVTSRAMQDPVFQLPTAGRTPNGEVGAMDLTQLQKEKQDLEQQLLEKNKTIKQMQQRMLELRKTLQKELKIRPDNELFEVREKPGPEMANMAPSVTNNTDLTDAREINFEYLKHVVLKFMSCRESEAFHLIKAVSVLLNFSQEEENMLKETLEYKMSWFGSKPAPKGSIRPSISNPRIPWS


What was measured:
Test in all cases: co-IP; transfected HEK293T cells; lysis buffer 25 mM Tris-HCl pH 7.4, 150 mM NaCl, 1 mM EDTA, 1% NP40, 5% glycerol; anti-Flag, anti-Myc or anti-HA beads overnight at 4 °C; Western blot
[1] = molecular target: T1, Flag-tagged BSRF1_(20-218) (Epstein-Barr virus (human herpesvirus 4 strain M81))
[2] = molecular target: T2, Flag-tagged BSRF1 (Epstein-Barr virus (human herpesvirus 4 strain M81))
GOLGA5 = molecular target: T3, GOLGA5
GM130 (GOLGA2) = molecular target: T4, GM130 (GOLGA2)
[3] = molecular target: HA-tagged EBV glycoprotein gB (Epstein-Barr virus) (UniProt P03188)
GOLGA1 = molecular target: T5, GOLGA1

| Molecule | binding [1] | binding [2] | binding (GOLGA5) | binding (GM130 (GOLGA2)) | binding [3] | binding (GOLGA1) |
| --- | --- | --- | --- | --- | --- | --- |
| Myc-tagged EBV glycoprotein gB (from UniProt P03188 22-857) | no binding | binds |  |  |  |  |
| Flag-tagged BSRF1 (protein, UniProt P0CK49 1-218) MAFYLPDWSCCGLWLFGRPRNRYSQLPEEPETFECPDRWRAEIDLGLPPGVQVGDLLRNEQTMGSLRQVYLLAVQANSITDHLKRFDAVRVPESCRGVVEAQVAKLEAVRSVIWNTMISLAVSGIEMDENGLKALLDKQAGDSLALMEMEKVATALKMDETGAWAQEISAVVSSVTAPSASAPFINSAFEPEVPTPVLAPPPVVRQPEHSGPTELALT |  |  | binds | no binding | binds | no binding |
